Laboratory results taken from the antibiotic and cytotoxicity screens of Wong et al. (2023).
Some of the results follow.

Tested on: S. aureus RN4220
Test: growth inhibition call (relative growth <= 0.2)
Conditions: 50 µM

Growth inhibition call, inactive:
COc1ccc(CN(C)C[C@H]2OCCCC[C@@H](C)Oc3ccc(NC(=O)Nc4ccc(F)cc4)cc3C(=O)N([C@@H](C)CO)C[C@@H]2C)cc1
C[C@H](CO)N1C[C@H](C)[C@@H](CN(C)S(=O)(=O)c2ccc(F)cc2)Oc2c(NS(=O)(=O)c3cn(C)cn3)cccc2C1=O
C[C@@H]1CCCCO[C@@H](CN(C)Cc2ccncc2)[C@@H](C)CN([C@@H](C)CO)C(=O)c2cc(NS(C)(=O)=O)ccc2O1
CC[N+](CC)(CC(=O)Nc1c(C)cccc1C)Cc1ccccc1.O=C([O-])c1ccccc1
C[C@H]1CN([C@@H](C)CO)C(=O)c2cccc(NS(=O)(=O)c3cccs3)c2O[C@@H]1CN(C)Cc1ccncc1
C=CCSCC(N)C(=O)O (stereo unspecified)
CC(C)NC(=O)Nc1ccc2c(c1)C(=O)N([C@H](C)CO)C[C@@H](C)[C@@H](CN(C)C(=O)Nc1ccc(C(F)(F)F)cc1)OCCCC[C@@H](C)O2
N=C(N)Nc1nc(CSCC/C(N)=N\S(N)(=O)=O)cs1
COc1ccc(S(=O)(=O)N(C)C[C@H]2Oc3ccc(NC(=O)C4CC4)cc3CC(=O)N([C@H](C)CO)C[C@H]2C)cc1
O=C1C[C@H]2[C@@H](CCN2c2cnccn2)N1
Cc1ccc(S(=O)(=O)Nc2ccc3c(c2)C(=O)N([C@H](C)CO)C[C@@H](C)[C@H](CN(C)S(=O)(=O)c2ccc(F)cc2)O3)cc1
